Results: publication PMC12136788
This is one part of the list.

B1: ENSG00000118785:stop:overlap|stop_codon|ENSG00000118785|stop_codon|NA|stop_codon (ssRNA)
RNA: GGGAGUUCUACAGUCCGACGAUCAGUUUCGCAGACCUGACAUCCAGGUAAAUCCUUUAACAGACACACCUGAUGGUUCUGACUAGCGCUCAAGUCUAGGAAACCACAGUUUGCAUAUUCAUUCAUUCAUUCAUCCAUUCAUUCCAACAGAGGAUUGAGCAUCA
B2: ENSG00000070961:be:win_4801|3pUTR|ENSG00000070961|bound_else_gene|NA|bound_elsewhere_windowed (ssRNA)
RNA: GGGAGUUCUACAGUCCGACGAUCCUUGUUUGUAAACAUAAAUAAAUAUGCCCUUUUAUUAAAUAAAUUCAUGGCAAUGUUUUUUUAAAAGACAUUUCAGCUUCUUUACUCAGUUCUGCAUAUACAGUGCAUCAGUCUGUUCUCCAACAGAGGAUUGAGCAUCA
B3: ENSG00000198589:be:win_8651|3pUTR|ENSG00000198589|bound_else_gene|NA|bound_elsewhere_windowed (ssRNA)
RNA: GGGAGUUCUACAGUCCGACGAUCUUGCUCAAAGAAGCAAAAUAUUUUUUAAAGUUAUUAAUAAUUGCUAUUUUUGUAGUCUUUGCUUGACUUUUUUGGGGGGGAUUAGCAAAGCAGAAAACUGGCUGCUGGGUUCUGUAGUUUCAACAGAGGAUUGAGCAUCA
B4: chrX:8795077:8795420:-|CDS|ENSG00000183304|control|control|control (ssRNA)
RNA: GGGAGUUCUACAGUCCGACGAUCAGCAGCAGAAGCCGCAGCAGCAGCAGAAGCCGCAGCAGCAGCAGCAGAAGUAAUAGUAGUAGAAGACGAAGAGGAGGAAGAGAAGGAGGAGGAGGAGGAGAAAGAAGAGGAGGAAGAAGACAACAGAGGAUUGAGCAUCA
B5: chr10:11920118:11920232:-|3pUTR|ENSG00000151461|unk|total|mutant (ssRNA)
RNA: GGGAGUUCUACAGUCCGACGAUCGCCGUAUAUUCCGUCGGAGAGCACAUCUGUAUGCGACAACUUGAUUACAUCUUUUUUUCCCGCUAUUUUGCAUUUUUUCUUUUACCAUGUUUCAGUUUCUGCAUGCCGAUUUAAAUAAAACAACAGAGGAUUGAGCAUCA
B6: chr3:66417149:66417250:-|CDS|ENSG00000144749|msi1|FALSE|unique (ssRNA)
RNA: GGGAGUUCUACAGUCCGACGAUCCAACAAGAUUCGCAGCGUGGAGGGGAGCCAGCUGAAGGCCUACCUUUCCUUAGAAGUGUUAGAUCUGAGUUUGAACAACAUCACGGAAGUGCGGAACACCUGCUUUCCACACGGACCGCCCAACAGAGGAUUGAGCAUCA
B7: ENSG00000132640:stop:overlap|stop_codon|ENSG00000132640|stop_codon|NA|stop_codon (ssRNA)
RNA: GGGAGUUCUACAGUCCGACGAUCACCUUAUCCCGGCCCCAAACUGGCAGGGUCUUUAUCCCACCAUUAGAGAGAGUAUGUUUUAGCUGUUGGGAGCUCUGUGUUCCAUGCGAUGUUUUACGGAGAACUUGCAGAGGACAAAGACAACAGAGGAUUGAGCAUCA
B8: chr13:36848462:36848578:-|3pUTR|ENSG00000120693|unk|FALSE|unique (ssRNA)
RNA: GGGAGUUCUACAGUCCGACGAUCAAAUACAUAGAAUGUAUACUGUUCUUAUUUUUUUUAAUCACCGUUUGUUUUGUGCUUUCUAGUUAACCUGAUGCCAGUACAGUGCAAUUGGAAAAGCAGGACUUUGGUGCCUGUGCUAUACAACAGAGGAUUGAGCAUCA
B9: chr11:111726697:111726798:+|3pUTR|ENSG00000170145|unk|FALSE|unique (ssRNA)
RNA: GGGAGUUCUACAGUCCGACGAUCGGAAGCUUCCAAGCAGUUUUCUCUUCAUCACUACUAACAAACAAAACACUAAGAAGGCUUAGUAUCGCUCUUUUUCUGCGGGGCUACUCUGAAGUACUGACUUGCUUUCCAGUCUGAUUCCAACAGAGGAUUGAGCAUCA
B10: chr13:27440139:27440263:-|CDS|ENSG00000122033|unk|FALSE|unique (ssRNA)
RNA: GGGAGUUCUACAGUCCGACGAUCAAUGAAGGAAAAAAGACAAAAAAGAAUAAAACAGCUUUUAGUAACGUUGGAAGAAAAAUUAGUCAGCGAGUUAUUCACUUAUUUGAUGAGAAGGGCAAUGAUUUGGGAAACAUGCACCGACAACAGAGGAUUGAGCAUCA
B11: chr10:131092390:131093161:-|three_prime_utr|ENSG00000176769|control|control|control (ssRNA)
RNA: GGGAGUUCUACAGUCCGACGAUCGUGAAUUACUUCGUUUCUCCAGGAUUCCCGCAGUGUUGAGGAAUUCCUUACUCUGUCCCUAGGUCUCAGUCUCGUUUCUGAGUAGCAGCAAUAGGGUUUUCAUCAUUCAUCAUAGUGACACAACAGAGGAUUGAGCAUCA
B12: ENSG00000198589:be:win_551|CDS|ENSG00000198589|bound_else_gene|NA|bound_elsewhere_windowed (ssRNA)
RNA: GGGAGUUCUACAGUCCGACGAUCCUCCACAUGCUGGGAAGUUGCUGUCUGUGUUAAAGCAUAUGCCUCAGAAGUAUGGUCCUGAUGCCUUUUUUAACUUUCCAGGAAAGAGUGCUGCAGCUAUUGCAUUACCUCCUAUAGCCACAACAGAGGAUUGAGCAUCA
B13: chr10:87814449:87814585:-|CDS|ENSG00000138138|unk|total|mutant (ssRNA)
RNA: GGGAGUUCUACAGUCCGACGAUCUUUAAUUUUCCGUUUGACAAUAUUUGGUGCAGUGACAUACUUUACUAUCAAAUGGAUGGCCGAUGCAAUUGAUCCAACCAGAAAGCAAAAAGCCGAAGCUCAGAAACAGGUAUGAUUGAACAACAGAGGAUUGAGCAUCA
B14: chr15:65118290:65118391:-|3pUTR|ENSG00000090470|msi1|FALSE|unique (ssRNA)
RNA: GGGAGUUCUACAGUCCGACGAUCACUUCCUUGUGUGUUGAUGGGUAAGUACACUCAAACACUGAAUACAGGUGUGUGAUGGGUAGAUUUCACAGCCCUUCUACUAAUAGUGAGUGUGAAGGCAAGCUUGAUGCAAAACCUCCUCAACAGAGGAUUGAGCAUCA
B15: ENSG00000198589:be:win_201|CDS|ENSG00000198589|bound_else_gene|NA|bound_elsewhere_windowed (ssRNA)
RNA: GGGAGUUCUACAGUCCGACGAUCAACUGUCUUUAACCUGUUGGUAGGAGGACAGUUUGAUCUGGAAAUGAAUUUCAUUAUCCAAGAAGGUGAGAGUAUUAACUGCAUGGUGGACCUACUGGAAAAAUGUGACAUUACGUGCCACAACAGAGGAUUGAGCAUCA
B16: chr8:122953881:122953982:+|CDS|ENSG00000178764|msi1|total|mutant (ssRNA)
RNA: GGGAGUUCUACAGUCCGACGAUCGAGUCGAGCGUUGUGGAUUACGUGGAGGUGACGGUCGGGGAGGAGGAUGCGAUCUCAGACCGAUCAGACCGCUGGAGUCAGGCUGCGGCAGAAGGUGUGUCGGAACUGGCUGAAUCAGACCAACAGAGGAUUGAGCAUCA
B17: chr8:118923556:118924373:-|three_prime_utr|ENSG00000164761|control|control|control (ssRNA)
RNA: GGGAGUUCUACAGUCCGACGAUCACUAUAUUUUCCCUUAUUACUGCUUGCAGUAAUUCAACUGGAAAUUAAAAAAAAAAAACUAGACUCCAUUGUGCCUUACUAAAUAUGGGAAUGUCUAACUUAAAUAGCUUUGAGAUUUCACAACAGAGGAUUGAGCAUCA
B18: chr9:130903550:130903651:-|3pUTR|ENSG00000130720|msi1|FALSE|unique (ssRNA)
RNA: GGGAGUUCUACAGUCCGACGAUCAAAUACCCGGCAUUAUGGGGACAGAGAGCAGGGGGCAGACAGCACCCCUGGAGUCCUCCUAGCAGAUCGUGGGGAACGUCAGGUCUCUCUGAGGUCAGGUCUGAGGCCAGUAUCCUCCAGCAACAGAGGAUUGAGCAUCA
B19: chr22:21763623:21763656:-|3pUTR|ENSG00000100030|msi1_unk|total|mutant (ssRNA)
RNA: GGGAGUUCUACAGUCCGACGAUCGUGCUUCCGUCUCCGGAAUCCUUGGGGAGCACUUGUCCACGUCUUUUCUCAUAUCAUGGCCGUCACUAACAUAUAUAAGGUAUGUGCUAUUGGCCCAGCUUUCCGAAAAUGCAGUCAUUUCAACAGAGGAUUGAGCAUCA
B20: chr2:213007362:213008084:-|CDS|ENSG00000030419|control|control|control (ssRNA)
RNA: GGGAGUUCUACAGUCCGACGAUCCAAUGGAGAAGGAGAACAGAUUAGGGCCUUCAAGUGUGAGCACUGCCGAGUCCUUUUCCUAGACCAUGUCAUGUACACCAUUCACAUGGGUUGCCAUGGCUACCGGGACCCACUGGAAUGCAACAGAGGAUUGAGCAUCA
B21: ENSG00000198589:be:win_4801|CDS|ENSG00000198589|bound_else_gene|NA|bound_elsewhere_windowed (ssRNA)
RNA: GGGAGUUCUACAGUCCGACGAUCCGAAGGAGGGACUCAGGCAUUGGGGAAGAAACAGCCACUGGUUUAGGAAGCCAUGUGGAAGUAACUCCUCACACAGCACCUCCUGGUGUCAGUGCAGGCCCAGAUGCAAUCAGCGAGGUGCAACAGAGGAUUGAGCAUCA
B22: ENSG00000198589:be:win_9201|3pUTR|ENSG00000198589|bound_else_gene|NA|bound_elsewhere_windowed (ssRNA)
RNA: GGGAGUUCUACAGUCCGACGAUCACCAUUUUUUCCUGAUCUGUCAUCUUCAUAGCACAACAAAACGAAAUGAUGGAAAUGCUCUUGAGCUCACAACAUUUGUUUUUCUUUUAAAGUAAAUGCAAGUACCAAAGCUCACUACUGCAACAGAGGAUUGAGCAUCA

What follows are binders tested against T1, UNK ZnF1-6 (called full-length) (human, UniProt Q9C0B0 30-357) (assay: nsRBNS (natural sequence RNA bind-n-seq); RBNS binding buffer (assumed for nsRBNS): 25 mM Tris pH 7.5, 150 mM KCl, 3 mM MgCl2, 0.01% Triton X-100, 500 ug/ml BSA, 20 U/ml SUPERase-In, 4 C; UNK is unkempt and MSI1 is Musashi-1; names of the RNAs are library labels; protein concentration not given here; high values mean tight binding).
T1 sequence: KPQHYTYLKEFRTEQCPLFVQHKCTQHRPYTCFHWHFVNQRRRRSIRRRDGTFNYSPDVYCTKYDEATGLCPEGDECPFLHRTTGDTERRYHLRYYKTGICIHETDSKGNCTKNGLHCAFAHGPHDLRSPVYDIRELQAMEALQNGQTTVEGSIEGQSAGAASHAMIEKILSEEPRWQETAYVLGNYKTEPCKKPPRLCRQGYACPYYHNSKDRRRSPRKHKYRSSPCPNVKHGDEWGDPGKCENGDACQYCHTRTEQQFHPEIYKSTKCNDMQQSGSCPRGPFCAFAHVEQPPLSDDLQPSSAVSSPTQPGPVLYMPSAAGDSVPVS

| Binder | binding signal |
| --- | --- |
| B1 | 0.593 enrichment R |
| B2 | 0.703 enrichment R |
| B3 | 1.45 enrichment R |
| B4 | 1.15 enrichment R |
| B5 | 0.775 enrichment R |
| B6 | 0.658 enrichment R |
| B7 | 1.11 enrichment R |
| B8 | 1.82 enrichment R |
| B9 | 0.325 enrichment R |
| B10 | 0.738 enrichment R |
| B11 | 0.483 enrichment R |
| B12 | 0.533 enrichment R |
| B13 | 0.349 enrichment R |
| B14 | 0.357 enrichment R |
| B15 | 0.339 enrichment R |
| B16 | 1.03 enrichment R |
| B17 | 0.529 enrichment R |
| B18 | 0.848 enrichment R |
| B19 | 0.484 enrichment R |
| B20 | 1.2 enrichment R |
| B21 | 0.655 enrichment R |
| B22 | 0.481 enrichment R |
